The values below come from paper PMC9911399, “Two distinct binding modes provide the RNA-binding protein RbFox with extraordinary sequence specificity”.

T1: RBFOX1 RRM RbFoxmut (Fox-RRM*) (Homo sapiens, UniProt Q9NWB1 109-208, R118D;E147R;N151S;E152T)
T1 sequence: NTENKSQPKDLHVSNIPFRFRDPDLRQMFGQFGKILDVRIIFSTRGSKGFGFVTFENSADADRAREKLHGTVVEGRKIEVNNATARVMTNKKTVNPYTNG

B1: CGAUCAU (DNA:RNA)
RNA: GGGAGACCGGAAUUCAGAUUGUCCCGAUCAUUUAAAUCCCGUCGUAGCCACCA
DNA 1: CAATCTGAATTCCGGTCTCCC
DNA 2: TGGTGGCTACGACGGGATT
B2: UGAUAAU (DNA:RNA)
RNA: B1 RNA with C25U, C29A
DNA 1: CAATCTGAATTCCGGTCTCCC
DNA 2: TGGTGGCTACGACGGGATT
B3: GAGACCU (DNA:RNA)
RNA: B1 RNA with C25G, G26A, A27G, U28A, A30C
DNA 1: CAATCTGAATTCCGGTCTCCC
DNA 2: TGGTGGCTACGACGGGATT
B4: GCCGAUA (DNA:RNA)
RNA: GGGAGACCGGAAUUCAGAUUGUCCGCCGAUAUUAAAUCCCGUCGUAGCCACCA
DNA 1: CAATCTGAATTCCGGTCTCCC
DNA 2: TGGTGGCTACGACGGGATT
B5: UCUGCCG (DNA:RNA)
RNA: B4 RNA with G25U, C27U, A29C, U30C, A31G
DNA 1: CAATCTGAATTCCGGTCTCCC
DNA 2: TGGTGGCTACGACGGGATT
B6: CCUAGGU (DNA:RNA)
RNA: B1 RNA with G26C, A27U, U28A, C29G, A30G
DNA 1: CAATCTGAATTCCGGTCTCCC
DNA 2: TGGTGGCTACGACGGGATT
B7: AACUCGC (DNA:RNA)
RNA: B1 RNA with C25A, G26A, A27C, A30G, U31C
DNA 1: CAATCTGAATTCCGGTCTCCC
DNA 2: TGGTGGCTACGACGGGATT
B8: AGCUAUA (DNA:RNA)
RNA: B4 RNA with G25A, C26G, G28U
DNA 1: CAATCTGAATTCCGGTCTCCC
DNA 2: TGGTGGCTACGACGGGATT
B9: UUGAAUA (DNA:RNA)
RNA: B4 RNA with G25U, C26U, C27G, G28A
DNA 1: CAATCTGAATTCCGGTCTCCC
DNA 2: TGGTGGCTACGACGGGATT
B10: GUGUAUG (DNA:RNA)
RNA: B4 RNA with C26U, C27G, G28U, A31G
DNA 1: CAATCTGAATTCCGGTCTCCC
DNA 2: TGGTGGCTACGACGGGATT
B11: GUAGUUU (DNA:RNA)
RNA: B4 RNA with C26U, C27A, A29U, A31U
DNA 1: CAATCTGAATTCCGGTCTCCC
DNA 2: TGGTGGCTACGACGGGATT
B12: AAGGACG (DNA:RNA)
RNA: B4 RNA with G25A, C26A, C27G, U30C, A31G
DNA 1: CAATCTGAATTCCGGTCTCCC
DNA 2: TGGTGGCTACGACGGGATT
B13: CGGAUCC (DNA:RNA)
RNA: B1 RNA with A27G, U28A, C29U, A30C, U31C
DNA 1: CAATCTGAATTCCGGTCTCCC
DNA 2: TGGTGGCTACGACGGGATT
B14: AGGCGGA (DNA:RNA)
RNA: B1 RNA with C25A, A27G, U28C, C29G, A30G, U31A
DNA 1: CAATCTGAATTCCGGTCTCCC
DNA 2: TGGTGGCTACGACGGGATT
B15: CAACUUU (DNA:RNA)
RNA: B1 RNA with G26A, U28C, C29U, A30U
DNA 1: CAATCTGAATTCCGGTCTCCC
DNA 2: TGGTGGCTACGACGGGATT
B16: GCCGCGA (DNA:RNA)
RNA: B4 RNA with A29C, U30G
DNA 1: CAATCTGAATTCCGGTCTCCC
DNA 2: TGGTGGCTACGACGGGATT
B17: AAUUAGG (DNA:RNA)
RNA: B1 RNA with C25A, G26A, A27U, C29A, A30G, U31G
DNA 1: CAATCTGAATTCCGGTCTCCC
DNA 2: TGGTGGCTACGACGGGATT
B18: UGUUUAA (DNA:RNA)
RNA: B1 RNA with C25U, A27U, C29U, U31A
DNA 1: CAATCTGAATTCCGGTCTCCC
DNA 2: TGGTGGCTACGACGGGATT
B19: AGAUUCA (DNA:RNA)
RNA: B1 RNA with C25A, C29U, A30C, U31A
DNA 1: CAATCTGAATTCCGGTCTCCC
DNA 2: TGGTGGCTACGACGGGATT
B20: CAUAAUG (DNA:RNA)
RNA: B4 RNA with G25C, C26A, C27U, G28A, A31G
DNA 1: CAATCTGAATTCCGGTCTCCC
DNA 2: TGGTGGCTACGACGGGATT

Residue numbers refer to the chain shown, from its start. The list shows a part of the results.

The assay concerns the target T1, RBFOX1 RRM RbFoxmut (Fox-RRM*). The assay can be described thus: EMSA; HiTS-Eq, 1 nM pool, 10 min; buffer printed only for the single-RNA assays: 10 mM Tris pH 7.5, 150 mM NaCl, 3.4 mM EDTA, 0.001% NP-40, 30 C. The following applies: tags: His6 N-terminal (pET28a); label: 5' 32P. Summed up:
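A pool of RNA with 7 randomized nucleotides, 5′-radiolabelled and with DNA-annealed flanks, was equilibrated at 1 nM for 10 min in 50 µL with purified RbFox RRM, wild type or mutant, across increasing protein concentrations. Free RNA was separated by 8% native PAGE, excised, reverse-transcribed, barcoded by PCR and sequenced. Relative association constants were obtained from read-count changes of each RNA species versus the control reaction and normalised to the cognate motif.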
On the technique in general: Mobility shift assays separate free from complexed probe on a gel.
Regarding B1, the binding signal is 0.0818 KA relative to UGCAUGU.

For B2, the binding signal is 0.0819 KA relative to UGCAUGU. To B3 belongs 0.0622 KA relative to UGCAUGU; to B4, 0.11 KA relative to UGCAUGU; to B5, 0.0615 KA relative to UGCAUGU. To B6 belongs 0.0979 KA relative to UGCAUGU; to B7, 0.0897 KA relative to UGCAUGU; to B8, 0.14 KA relative to UGCAUGU. To B9 belongs 0.132 KA relative to UGCAUGU; to B10, 1.38 KA relative to UGCAUGU; to B11, 0.128 KA relative to UGCAUGU. On to B12, for which the binding signal is 0.0532 KA relative to UGCAUGU.

Regarding B13, the binding signal was 0.114 KA relative to UGCAUGU. To B14 belongs 0.12 KA relative to UGCAUGU. To B15 belongs 0.0981 KA relative to UGCAUGU; to B16, 0.0939 KA relative to UGCAUGU; to B17, 0.106 KA relative to UGCAUGU. Regarding B18, the binding signal was 0.105 KA relative to UGCAUGU. To B19 belongs 0.107 KA relative to UGCAUGU; to B20, 0.119 KA relative to UGCAUGU.
